Results published in PubChem BioAssay AID1508642 (National Center for Advancing Translational Sciences (NCATS), 2021).
In all, about 43,000 compounds went through this assay and about 200 (0.47%) were called active. Roughly 12% stayed inconclusive and do not appear here. Calls follow the shape of the dose curve; as a rule, active = well fitted cell-killing curve with a large enough effect; inconclusive = small, poorly fitted or top-dose-only effect, or effect the other way; inactive = flat fitted curve, though single readings scatter. This is one part of the list.

Assay: Cell viability qHTS assay in S16 Pmp22-F2sN cells; also: nearly all actives have a fitted effect of over 65% in size
Conditions: S16 Pmp22-F2sN Schwann cells (luciferase reporters placed in the Pmp22 gene) viability, CellTiter-Glo, 24 h; series mostly up to 57.5 µM; activity change, negative = cytotoxicity: at the top concentration
How it was run: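 S16 Schwann cells carrying the Pmp22-F2sN reporter, seeded in 1536-well format, were exposed to library compounds for 24 h at 37C. Viability was read as CellTiter-Glo luminescence after 15 min at room temperature.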
% is scaled to controls: 0 for no effect and ±100 for the full control effect.

| Structure (SMILES) | activity change, negative = cytotoxicity |
| --- | --- |
| CCC(Cc1ccccc1)NC(=O)Cn1ncc2c3ccccc3n(Cc3ccccc3)c2c1=O (centres undefined) | inactive: 17.3% |
| CCc1nc2nc(C)cc(Nc3ccc(OC)cc3OC)n2n1 | inactive: -17.5% |
| Cc1ccc(Cl)cc1N1CCN(C(=O)c2cc(S(=O)(=O)N3CCCC3)cn2C)CC1 | inactive: 0.946% |
| Cc1cc(C)n2nc(SCC(=O)Nc3ccccc3C)nc2n1 | inactive: -4.84% |
| COc1ccc(N2C(=O)C(CC(=O)Nc3ccc(F)cc3)N(Cc3ccc4c(c3)OCO4)C2=O)cc1 (centres undefined) | inactive: -4.2% |
| COC(=O)c1cnc(NCc2ccc(F)cc2)c2ccccc12 | inactive: -9.55% |
| CCN(CC)C(=O)Cn1c(=O)nc(-c2ccccc2F)c2cc(Cl)ccc21 | inactive: 4.7% |
| CCCNC(=O)N1[C@H](c2ccc(C)s2)[C@@H](C)C(=O)[C@@H](C)[C@@H]1c1ccc(C)s1 | inactive: -2.16% |
| COc1ccc(CC(=O)NCC(c2ccc(N(C)C)cc2)N2CCOCC2)cc1 (centres undefined) | inactive: -3.99% |
| CC(C)c1ccc(OC(=O)c2cc(-c3ccc(Cl)cc3)on2)cc1 | inactive: -16.1% |
| COc1ccc(-n2c(=O)c3sc4ccccc4c3n(CC(=O)Nc3ccccc3F)c2=O)cc1 | inactive: 8.06% |
| O=C1c2[nH]nc(-c3ccccc3O)c2C(c2ccccc2F)N1Cc1ccncc1 (centres undefined) | inactive: 4.6% |
| CCOC(=O)Cc1ccc(NC(=O)NCc2cccn2Cc2ccccc2)cc1 | inactive: 6.07% |
| CCCN1Cc2cccc(C(=O)Nc3cc(C)cc(C)c3)c2C1=O | inactive: 0.743% |
| CC(=O)Nc1ccc(C)cc1-c1nc2ccccc2n(CC(=O)Nc2cc(Cl)ccc2C)c1=O | inactive: 9.51% |
| COc1ccc(Cl)cc1NC(=O)CCC(=O)N1CCOc2ccccc21 | inactive: 0.741% |
| COC(=O)c1ccc(Cl)cc1NC(=O)N(Cc1ccc(C)o1)C1CCN(C(C)=O)CC1 | inactive: -3.29% |
| CCC(CC)c1nn2c(=O)cc(COc3ccc(NC(=O)c4cccc(Cl)c4)cc3)nc2s1 | inactive: 14.7% |
| COc1ccc(C)cc1NS(=O)(=O)c1ccc2c(c1)n(C)c(=O)n2C | inactive: -2.33% |
| Cc1ccc2c(c1)N(C(=O)NCc1ccccc1)CCO2 | inactive: 1.96% |
| CCC(C)NC(=O)c1ccc2c(=O)n3c(nc2c1)CCCCC3 (centres undefined) | inactive: 15.7% |
| Cc1ccc(NC(=O)Cn2nnc3sc(-c4ccccc4)cc3c2=O)cc1Cl | inactive: 7.18% |

| Structure (SMILES) | activity change, negative = cytotoxicity |
| --- | --- |
| Cc1nnc2c(Nc3cccc(O)c3)nc3ccccc3n12 | inactive: -0.35% |
| CCn1c(=O)c(=O)n(CC)c2cc(N3CCCCC3)c(NC(=O)c3cccc(F)c3)cc21 | inactive: -6.01% |
| CCOc1ccc(/C=C/c2nc3ccccc3n2S(=O)(=O)c2ccc(Br)cc2)cc1 | inactive: -6.72% |
| COc1cccc(NC(=O)Cn2c(=O)n(-c3ccc(Cl)cc3)c(=O)c3sc4ccccc4c32)c1 | inactive: 1.97% |
| O=C(Cn1c(=O)nc(-c2ccccc2)c2cc(Cl)ccc21)NCCc1ccc(Cl)cc1 | inactive: 10.9% |
| COc1ccc(S(=O)(=O)NCC(c2ccco2)N2CCOCC2)cc1C (centres undefined) | inactive: -11.7% |
| COc1ccccc1N1CCN(S(=O)(=O)c2c(C)sc3ncn(CC(=O)Nc4ccccc4F)c(=O)c23)CC1 | inactive: 8.06% |
| CCc1ccc(-c2[nH]nc3nc(-c4ccc(OC)cc4)cc(C(=O)NCCc4ccc(OC)c(OC)c4)c23)cc1 | inactive: -14.4% |
| CCOc1ccc(NC(=O)CSc2nnc(CNC(=O)c3c(F)cccc3Cl)o2)cc1 | inactive: 2.92% |
| CCc1ccc(NCc2cccn2-c2nnc(N3CCCCCC3)s2)cc1 | inactive: -17.4% |
| CCOc1ccc(NC(=O)Cn2nc(-c3ccncc3)ccc2=O)cc1 | inactive: 4.58% |
| O=C(c1cccc(Cl)c1)N1CCN(CCc2ccccn2)CC1 | inactive: -3.24% |
| O=C(NCc1nc2cccnc2n1Cc1ccc(F)cc1)c1ccccc1C(F)(F)F | inactive: -12.9% |
| COc1ccc2nc(NC(=O)c3cc(=O)c4ccccc4o3)sc2c1 | inactive: 9.05% |
| COc1ccc(NC(=O)Cn2c(=O)n(CCc3ccccc3)c(=O)c3ccccc32)cc1 | inactive: 20.9% |
| Cc1noc(-c2ccc(NCc3ccccc3)c([N+](=O)[O-])c2)n1 | inactive: 0.98% |
| COc1cccc(CNS(=O)(=O)c2cc3c(cc2C)n(C)c(=O)c(=O)n3C)c1 | inactive: -2.7% |
| Cc1ccccc1CN1C(=O)c2ccccc2Sc2ccc(C(=O)NCc3cccs3)cc21 | inactive: -20.8% |
| Cc1noc(/C=C/c2ccccc2F)c1S(=O)(=O)N1CCC(C(=O)N(C)Cc2ccco2)CC1 | inactive: -2.52% |
| CCC(=O)N1CCc2cc(Br)cc(S(=O)(=O)N3CCCC(C(=O)NCc4ccccc4)C3)c21 (centres undefined) | inactive: 8.41% |
| COC(=O)c1c(N)n(-c2cc(Cl)cc(Cl)c2)c2nc3ccccc3nc12 | inactive: 20% |
| Nc1c(-c2nc(-c3ccncc3)no2)nnn1CC(=O)Nc1ccccc1 | inactive: -2.78% |

| Structure (SMILES) | activity change, negative = cytotoxicity |
| --- | --- |
| COc1ccccc1CNCCSc1nnnn1C | inactive: 15.6% |
| COc1ccc(C(=O)N(Cc2ccco2)Cc2ccco2)cc1 | inactive: 9.68% |
| COC(=O)c1cc2oc3ccccc3c2n1Cc1ccc(C)cc1 | inactive: 12.5% |
| Cc1c(Cl)cccc1Nc1nn2c(=O)c3ccccc3nc2s1 | inactive: 5.48% |
| CCOC(=O)c1cc2c(=O)n3ccccc3nc2n(Cc2ccco2)c1=NC(=O)c1ccccc1Br | inactive: -12.5% |
| COC(=O)c1cc(NC(=O)c2cc3c(-c4ccccc4F)nn(C)c3s2)cc(C(=O)OC)c1 | inactive: 23.7% |
| COc1ccc(OC)c(S(=O)(=O)NCC(c2ccc(N(C)C)cc2)N2CCOCC2)c1 (centres undefined) | inactive: 8.29% |
| O=C(NCC(c1ccco1)S(=O)(=O)c1cccs1)c1ccccc1 (centres undefined) | inactive: -11.9% |
| COc1ccc(N2CCN(S(=O)(=O)c3ccc(CC(C)C)cc3)CC2)cc1 | inactive: 20.4% |
| Cc1oc(-c2ccccc2F)nc1CS(=O)(=O)CC(=O)N1CCN(c2ccccc2)CC1 | inactive: 11.5% |
| COc1ccc(-c2[nH]c(-c3ccc(O)cc3)nc2-c2ccccc2)cc1 | inactive: 13.3% |
| Cc1ccc(Cn2c(SCC(=O)NCc3ccccc3)nc3ccsc3c2=O)cc1 | inactive: 2.79% |
| Cc1ccccc1-c1noc(-c2ccc(NCC3CCCO3)c([N+](=O)[O-])c2)n1 (centres undefined) | inactive: 8.5% |
| O=c1cc(COc2ccc(Cl)cc2Cl)nc2scc(-c3ccccc3)n12 | inactive: 0.682% |
| COc1ccccc1OCC(=O)N(Cc1ccco1)Cc1ccccc1F | inactive: -5.03% |
| CCOc1ccc(CC(=O)NC2CC(=O)N(c3cccc(F)c3)C2)cc1 (centres undefined) | inactive: 9.28% |
| CC(CNC(=O)c1ccc2c(c1)nc1n2CCCCC1)c1ccccc1 (centres undefined) | inactive: 14% |
| COc1ccc(N(Cc2cccs2)C(=O)c2ccco2)cc1 | inactive: -1.67% |
| CCCCC(=O)Nc1nnc(S(=O)(=O)N(C)Cc2ccc(Cl)cc2)s1 | inactive: 4.77% |
| COCCCNc1nc2c(c(=O)n(Cc3ccc(F)cc3)c(=O)n2C)n1C | inactive: 1.92% |
